Laboratory results: PubChem BioAssay AID488969 (Vanderbilt High Throughput Screening Facility, 2010)
The full ranking holds about 110,000 compounds; the median of “z-score” is about -0.1, and the highest 2% start at about 2. Some of the results follow.

Each compound was assayed against Metabotropic glutamate receptor 8 (Rattus norvegicus) (UniProt P70579) (assay: rat mGluR8 modulators via GIRK flux, primary screen, cell-based, thallium flux, HTS (AID 488969)). Details: HEK293 rat mGluR8, GIRK (G protein-gated inwardly rectifying potassium channel) thallium flux, FluoZin2; at 10 µM; stronger effect = higher value; submaximal glutamate (EC20) added with thallium.
UniProt P70579, sequence (P70579 whole entry, looked up): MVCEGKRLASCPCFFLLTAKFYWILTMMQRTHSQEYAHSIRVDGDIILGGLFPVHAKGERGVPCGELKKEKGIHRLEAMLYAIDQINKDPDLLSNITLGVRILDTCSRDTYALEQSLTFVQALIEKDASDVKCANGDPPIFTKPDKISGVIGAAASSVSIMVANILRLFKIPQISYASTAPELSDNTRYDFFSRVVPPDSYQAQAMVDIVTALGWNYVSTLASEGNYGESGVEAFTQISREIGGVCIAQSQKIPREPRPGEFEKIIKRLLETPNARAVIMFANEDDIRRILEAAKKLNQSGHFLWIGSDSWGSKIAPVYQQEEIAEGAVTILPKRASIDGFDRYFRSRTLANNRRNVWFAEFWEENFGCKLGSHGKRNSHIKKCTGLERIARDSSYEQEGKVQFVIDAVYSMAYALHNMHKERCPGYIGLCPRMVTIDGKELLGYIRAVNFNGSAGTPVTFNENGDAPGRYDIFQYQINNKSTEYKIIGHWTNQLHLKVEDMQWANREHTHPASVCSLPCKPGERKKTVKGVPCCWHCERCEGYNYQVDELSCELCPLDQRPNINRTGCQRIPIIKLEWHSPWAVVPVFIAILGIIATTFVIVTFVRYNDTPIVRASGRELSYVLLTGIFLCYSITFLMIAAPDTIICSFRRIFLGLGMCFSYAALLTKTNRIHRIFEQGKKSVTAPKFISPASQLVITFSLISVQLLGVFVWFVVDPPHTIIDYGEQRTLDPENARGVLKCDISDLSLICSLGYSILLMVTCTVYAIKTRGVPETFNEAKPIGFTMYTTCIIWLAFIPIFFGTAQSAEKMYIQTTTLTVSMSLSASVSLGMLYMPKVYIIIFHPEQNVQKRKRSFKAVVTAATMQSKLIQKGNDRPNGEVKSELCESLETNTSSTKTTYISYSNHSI

Row | SMILES | z-score
1 | COc1ccc(/C=N/NC(=O)c2ccc3c(c2)OCCO3)cc1[N+](=O)[O-] | -0.012
2 | Cc1nn(-c2ccc(F)cc2)c2nc(N)c(C#N)c(-c3cccs3)c12 | 0.056
3 | C=CCN(C(=O)CSc1nc2[nH]ncc2c(=O)n1-c1ccccc1OC)c1ccccc1 | -0.457
4 | O=C(NCCSc1c[nH]c2ccccc12)c1ccc(Br)o1 | -0.00412
5 | O=C(NC1=NCCS1)c1ccc(Cl)c(S(=O)(=O)N2CCCCC2)c1 | 0.118
6 | COc1ccc2ccccc2c1C1CC(=O)N2CN(Cc3ccco3)CSC2=C1C#N (stereo unspecified) | -0.0668
7 | O=C(COc1ccc(S(=O)(=O)N2CCc3ccccc32)cc1Cl)NCc1ccccn1 | 0.627
8 | CC(C)Oc1ccc(CNCC2(O)CCOC(C)(C)C2)cc1 (stereo unspecified) | 0.977
9 | COc1ccccc1/C=N/NC1=NCCCCC1 | -0.105
10 | COc1cccc(C(=O)/C=C/Nc2ccc(S(=O)(=O)Nc3nc(C)cc(C)n3)cc2)c1 | -0.0552
11 | Cc1ccc(SCc2cn3cccnc3n2)cc1 | 0.687
12 | COC(=O)c1ccc(NC(=O)Cc2ccc(C)cc2)cc1 | -0.433
13 | Oc1c(Br)cc(Cl)cc1C=Nc1ccccc1Br | -0.827
14 | Cc1cc(C)c(COc2ccc(/C=N/n3c(C)n[nH]c3=S)cc2)c(C)c1 | 0.242
15 | Cc1ccc(-n2nc(C)c3c(C)c(CCC(=O)NC(C)c4ccccc4)c(C)nc32)cc1 (stereo unspecified) | -0.13
16 | O=C1CC(N2CCC(c3nc4ccccc4o3)CC2)C(=O)N1c1ccc(Cl)cc1 (stereo unspecified) | 0.0454

Row | SMILES | z-score
17 | Cn1cc(S(=O)(=O)N2CCN(Cc3ccccc3)CC2)c(=O)n(C)c1=O | 0.108
18 | O=C(Nc1ccnc(-c2cccnc2)n1)c1ccccc1Cl | -0.0168
19 | CCN(CC)C(=O)c1cc(-c2ccc(Br)cc2)on1 | 1.48
20 | Cc1cccc(N(CC(N)=O)C2SC(=O)NC2=O)c1 (stereo unspecified) | -0.0487
21 | COc1ccc(CCn2nnnc2C(CC(C)C)N2CCC(C(N)=O)CC2)cc1OC (stereo unspecified) | -0.0829
22 | O=C(OCc1ccccc1Cl)c1cccnc1Cl | -0.157
23 | COc1ccc(N2CCN(C(=O)CN(c3ccc(Br)cc3)S(C)(=O)=O)CC2)cc1 | 0.0268
24 | CSc1ccc(CNc2ccc(C)c(C)c2)cc1 | -0.183
25 | COc1ccc(F)cc1CN1CCN(c2cc(C)nc3c4c(C)cc(C)nc4nn23)CC1 | -0.542
26 | COc1cccc(C(=O)N(CN2CCCC2=O)c2ccccc2OC)c1 | 0.2
27 | O=C(Nc1ccccc1)c1cccc(N2CCCC2=O)c1 | -0.342
28 | Cc1cc(C)n(-c2cc(N3CCN(S(=O)(=O)c4ccc(C)c(C)c4)CC3)ccc2[N+](=O)[O-])n1 | -0.0583
29 | Cc1cc(C)nc(N(C#N)Cc2ccccc2Cl)n1 | -0.117
30 | CCSc1nsc(SCC)c1C(N)=O | -0.0132
31 | Cn1nccc1/C=C(/C#N)S(=O)(=O)c1ccccc1 | -0.0393
